Experimental data taken from patent US10722577B2, “Methods for treating GI syndrome and graft versus host disease” (Sloan Kettering Institute for Cancer Research, priority 2012, dated 2020).

Legend:
[1] = test system: C57BL/6 mice; experiment: Crypt microcolony assay (surviving crypts) after irradiation; assay type: in vivo, mouse; details: 15 Gy WBI
Protocol: Male 6-10 week old C57Bl/6 mice were administered h2A2 monoclonal antibody 15 minutes prior to 15 Gy full body irradiation. Animals were sacrificed 3.5 days following irradiation, and tissues were processed for the crypt microcolony assay. Proximal jejunum sections were harvested for sectioning. Intestinal sections were stained with H&E, and surviving crypts were quantified according to the method of Withers and Elkund. Multiple sections from at least 3 mice were scored per data point.
The lethality of GI stem cell clonogens is best assessed by the number of crypts surviving at 3.5 days after radiation exposure, which decreases exponentially as the dose increases (C. S. Potten and M. Loeffler, Development 110 (4), 1001 (1990), H. R. Withers, Cancer 28 (1), 75 (1971), and J. G. Maj, F. Paris, A. Haimovitz-Friedman et al., Cancer Res 63, 4338 (2003)). Crypts that contain surviving stem cells proliferate at an accelerated rate, producing typical regenerative crypts that split or bud to generate new crypts, until the intestinal mucosa regains a normal architecture. […] At higher doses, however, massive stem cell clonogen loss may lead to a near total collapse of the crypt-villus system, mucosal denudation and animal death from the GI syndrome. […] A dose of 15 Gy was used in the experiments described herein. Subtotal was used for survival studies, as described in the next paragraph
TBI (total body irradiation) was used only for protection studies, SBI for mitigation studies was delivered with a Shepherd Mark-I unit (Model 68, SN643) operating ^137Cs sources. The dose rate was 2.12 Gy/min. To collect small intestinal samples, mice were sacrificed by hypercapnia asphyxiation, and 2.5 cm segments of the proximal jejunum were obtained at 2 cm from the ligament of Trietz. Tissue samples were fixed by overnight incubation in 4% neutral buffered formaldehyde and embedded in paraffin blocks. […]

[2] = test system: C57BL/6 mice; experiment: Toxicity of antibody administration in mice; assay type: in vivo, mouse
Excerpt: (§1) 100% of animals receiving 2A2 were saved from radiation GI syndrome lethality at 15 Gy total body irradiation. In contrast, 100% of animals receiving irrelevant IgM (isotype control) or no antibody (vehicle only) consistently died with denuded intestinal mucosa and clinical evidence of radiation GI syndrome lethality. At the LD50 dose of 14 Gy total body irradiation, 2A2 plus hematopoietic stem cell transplant (HSCT) saved 100% of irradiated animals.

[3] = test system: C57BL/6 mice; experiment: Radiation-induced intestinal endothelial apoptosis in vivo; design: species or system mouse
Excerpt: as §1

[4] = test system: Jurkat cells; experiment: Radiation-induced Jurkat cell apoptosis inhibition; assay type: cell-based, human; details: preincubation 25-100 micrograms/mL
Protocol: Jurkat cells adjusted to 1×10^6 cell/ml in RPMI medium containing 10% FBS were administered h2A2 or m2A2 anti-ceramide antibody, and exposed to 10 Gy gamma irradiation. Cells were fixed after 16 hours, and apoptosis was quantified by Hoeschst bisbenzimide stain.
The humanization of the mouse 2A2 antibody is described in the Examples below. […] In vitro biologic activity of h2A2 IgG1 was determined using human Jurkat T lymphocytes that were exposed to 10 Gy ionizing radiation in the presence or absence of h2A2 IgG1. m2A2 IgM was used as a positive control in these experiments. […] FIG. 7.

[5] = ELISA binding to BSA-conjugated C16 ceramide
Protocol: Maxisorp ELISA plates were coated overnight at 4° C. with BSA-conjugated to C16 carboxy-ceramide or BSA alone. Following blocking with 2 mg/ml non-fat milk solution, biotinylated h2A2 was added to the plate for 2 hrs at room temperature at the indicated concentration. Binding was determined following detection with HRP-conjugated streptavidin and quantification of signal by plate reader.
ELISA was performed as described in FIG. 1. Binding of humanized IgG or mouse IgM was detected with anti-human HRP or anti-mouse HRP secondary antibody.
The monoclonal antibodies, including 2A2, were made using methods known in the art and described in more detail in PCT/US08/62789. In order to make the antibody, a ceramide antigen was developed that was immunogenic enough to generate a strong antibody response from an inoculated host. […] OD was assessed following administration of HRP substrate at 650 nm. […]
To confirm the binding affinity of h2A2 to ceramide, performed a series of ELISA assays were performed using C16 ceramide covalently bound to either bovine serum albumin (BSA) or ovalbumin (OVA) via a linkage at the terminal end of the fatty acid subunit of ceramide. Briefly, h2A2 was biotinylated, and antibody binding to microplates coated with BSA- or OVA-conjugated C16 ceramide was determined using horse-radish peroxidase labeled streptavidin.

[6] = test system: C57BL/6 mice; experiment: Survival after lethal irradiation (Radiation GI Syndrome), Kaplan-Meier; assay type: in vivo, mouse
Protocol: Male C57BL/6 mice (6-8 weeks old) were placed in a ventilated Plexiglas restrainer with head/forepaws and hind legs/tail covered by lead shield, and exposed to 15.5 Gy or 16 Gy subtotal body irradiation (SBI) (Philips MG-324 X-ray unit at a dose rate of 118.3 cGy/min, 50 cm source to skin distance). Purified 2A2 IgM (1000 μs) was administered by intravenous tail-vein injection 24 hours following irradiation.
TBI (total body irradiation) was used only for protection studies, SBI for mitigation studies was delivered with a Shepherd Mark-I unit (Model 68, SN643) operating ^137Cs sources. The dose rate was 2.12 Gy/min. To collect small intestinal samples, mice were sacrificed by hypercapnia asphyxiation, and 2.5 cm segments of the proximal jejunum were obtained at 2 cm from the ligament of Trietz. Tissue samples were fixed by overnight incubation in 4% neutral buffered formaldehyde and embedded in paraffin blocks. To evaluate intestinal tissue responses to radiation, transverse sections of the full jejunal circumference (5 micrometers thick) were obtained by microtomy from the paraffin blocks, adhered to polylysine-treated slides and deparaffinized by heating at 90 degrees Celsius for 10 minutes and at 60 degrees Celsius for 5 minutes, followed by two xylene washes for 5 minutes, and stained with hematoxylin and eosin according to a standard protocol. To determine the causes of death after TBI, autopsies were performed within 60 min of animal death or when terminally-sick animals displaying an agonal breathing pattern were sacrificed by hypercapnia asphyxiation. Tissue specimens were collected from all animals, fixed in formaldehyde, and stained with hematoxylin.
Actuarial survival of animals was calculated by the product limit Kaplan-Meier method. Terminally sick animals displaying an agonal breathing pattern were sacrificed by hypercapnia asphyxiation and evaluated by necropsy to determine cause of death. Intestinal specimens were fixed in formaldehyde, and stained with hematoxylin.

B1: 2A2: mouse monoclonal anti-ceramide IgM, ATCC Patent Deposit Designation PTA-13418 (antibody, listed as Mouse sp., V domains shown)
VH: EVQLQQSGTVLARPGASVKMSCKASGYTFTNYWMHWVKQRPVQGLEWIGAIYPGDSDTSYNQKFKGKAKLTAVTSTSTAFMELSSLTNEDSAVYYCTGLYYGYDWGQGTTLTVSS
VL: DVLMTQTPLTLSVTIGQPASISCKSSQSLIDSDGKTFLNWLLQRPGQSPKRLIYLVSKLDSGVPDRFTGSGSGTDFTLKISRVEAEDLGLYYCWQGTHFPYTFGGGTKLEIK
modifications: IgM; Mouse 2A2 Variable Heavy Chain (VH); Mouse 2A2 Variable Light Chain (VL)
With B1 the “dose achieving maximal protection of crypts” value [1] was 1,000 μg/25 g mouse, the “dose achieving maximal protection of crypts, per kg” value [1] was 40 mg/kg and the “dose that increased the number of surviving crypts (P<0.05)” value ([1]; antibody before irradiation) was 50 μg/25 g mouse. The toxicity of administration [2] was “without toxicity”, the “reduction of peak endothelial apoptosis within the lamina propria microvasculature” value ([3]; 1,000 μg/25 g mouse intravenous, 15 minutes prior to 15 Gy WBI) was 83% and the “endothelial cell apoptosis in vivo” value ([3]; mouse, in vivo) was “dose dependently inhibited endothelial cell apoptosis in vivo”. For the same molecule, the “inhibition of 8 Gy-induced apoptosis of Jurkat cells” value [4] was “inhibited 8 Gy-induced apoptosis”, the “binding to ceramide (ELISA)” value ([5]; BSA- or OVA-conjugated C16 ceramide vs BSA alone) was “bound to BSA-ceramide; also recorded: specific affinity for ceramide” and the “binding to ceramide relative to comparator antibody (ELISA)” value ([5]; compared with m2A2, MID15B4 or control IgM) was “significantly more binding capacity of 2A2 vs. control IgM”. The irradiated animals saved ([6]; 14 Gy total body irradiation (LD50), plus HSCT) was 100%, the “animals saved from radiation GI syndrome lethality” value ([6]; 15 Gy total body irradiation) was 100% and the GI tracts protected ([6]; 17 Gy total body irradiation) was 50%. The “mice that succumbed dying with intact GI tracts” value ([6]; 17 Gy total body irradiation) was 33%, the “pretreated mice surviving ad infinitum” value ([6]; 17 Gy total body irradiation) was 25% and the mouse survival ([6]; antibody alone, 24 hours following 15.5 Gy SBI) was “improves mouse survival; also recorded: mouse survival was significantly improved”.

“Also recorded” adds a separate entry of the source.
